The other results are listed elsewhere or left out.

The target of the experiment is T1, OsWOX13 (Oryza sativa, UniProt Q5QMM3 1-267).
T1 sequence: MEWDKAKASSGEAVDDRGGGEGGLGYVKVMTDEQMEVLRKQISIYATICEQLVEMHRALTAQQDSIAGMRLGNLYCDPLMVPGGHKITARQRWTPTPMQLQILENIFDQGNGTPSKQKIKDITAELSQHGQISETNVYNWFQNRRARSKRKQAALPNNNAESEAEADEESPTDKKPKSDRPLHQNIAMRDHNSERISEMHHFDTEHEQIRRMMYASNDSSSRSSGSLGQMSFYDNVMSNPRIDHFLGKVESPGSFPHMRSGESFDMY
The experiment can be described thus: protein-binding microarray (RPBM); PBS, 2% BSA, 51.3 ng/ul salmon testes DNA, 50 uM zinc acetate, 200 nM TF, 25 C, 1 h; high values mean tight binding. The note with it: protein: recombinant; tags: N-terminal polyhistidine and DsRed monomer fusion (pET32a); label: CyDye5-dUTP incorporated in the synthesized complementary strand; 3' TTTTT single-stranded linker to array surface; dsDNA, one strand shown. In short, it runs like this:
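In PBS with 2% BSA, salmon testes DNA and 50 µM zinc acetate, 200 nM protein was incubated on a custom Agilent array at 25 °C for 1 h and then washed off. The array had been made double-stranded by primer extension with Cy5-dUTP and blocked with 2% BSA. The proteins were transcription factors fused N-terminally to polyhistidine and DsRed, expressed in E. coli BL21-CodonPlus and purified on Ni–NTA. The binding signal is per-feature fluorescence intensity (arbitrary units) from an Axon 4000B scanner.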
With “GCTACATTTGCCAATCTTTATCTCCCCACATAAATGACTTCGGAGTCACCTAGTGCAG”, the binding signal was 3900 fluorescence intensity (a.u.).
Consider “CCTGATATAGACTGCTTTCTGGTTGATCTGTTAGTAGCGGCGGAGTCACCTAGTGCAG”, for which the binding signal was 25300 fluorescence intensity (a.u.).
Regarding “TGCATTGATAGATAGAGAGATGGAGAGATAGTGGATAGCTCGGAGTCACCTAGTGCAG”, the binding signal is 28800 fluorescence intensity (a.u.).
With “TCTTCCTCTGCGTGGGCCGGGGCGGAGGGAGGGAGGGGAACGGAGTCACCTAGTGCAG”, the binding signal is 10300 fluorescence intensity (a.u.).
For the sequence “ATTATTGTTTATTTTGTTATGATTTATTTTATCATTACGTCGGAGTCACCTAGTGCAG”, the binding signal is 10700 fluorescence intensity (a.u.).
Then “ATGTGAATAATTTAAGGCAATGCATTTATATGCCGATGGGCGGAGTCACCTAGTGCAG”, with 3630 fluorescence intensity (a.u.).
For “AAAACAATATAATTTAATATACAAACTTCAAATGTACCATCGGAGTCACCTAGTGCAG”, the binding signal was 5180 fluorescence intensity (a.u.).
For “TCTTGATAACAATCAGCGAGGGATCAACAATGAATATAATCGGAGTCACCTAGTGCAG”, the binding signal was 3320 fluorescence intensity (a.u.).
Take “GTAATTAAGGCCTTTCTCAGTAAATTATTGCAATGCTCACCGGAGTCACCTAGTGCAG”: the binding signal is 3560 fluorescence intensity (a.u.).
For “ATTAATATTTCTAATATTAATTTGAGATATATCAAGATATCGGAGTCACCTAGTGCAG”, the binding signal was 4250 fluorescence intensity (a.u.).
For the sequence “ACAAGATAGATTAATATGAAATATAACACTTCATAAATATCGGAGTCACCTAGTGCAG”, the binding signal was 6010 fluorescence intensity (a.u.).
With “ATGTAAATTTTGTGAACAATGTTATTACCACTTTGTCGGACGGAGTCACCTAGTGCAG”, the binding signal was 6010 fluorescence intensity (a.u.).
Take “GGTGACAGGCAGTCCACATCCTTATCGCTCTTTGCTAGTTCGGAGTCACCTAGTGCAG”: the binding signal is 11700 fluorescence intensity (a.u.).
As for “TGGGCCGCACGTAATTGAAATCCAATTCTGGCCCAAACTACGGAGTCACCTAGTGCAG”, the binding signal is 7460 fluorescence intensity (a.u.).
As to “GATTAATTAGTCTCTCTGATCGCATCGAACTTGTAATAATCGGAGTCACCTAGTGCAG”, the binding signal is 20000 fluorescence intensity (a.u.).
On to “CCTAGGCAGATAATGTTGATTACGGTAACAGGTTGTGTTACGGAGTCACCTAGTGCAG”, for which the binding signal was 4720 fluorescence intensity (a.u.).
On to “ACTATTGGAGTATGGTGCGTGATTGTCCACAATTTATTCACGGAGTCACCTAGTGCAG”, for which the binding signal is 3150 fluorescence intensity (a.u.).
Then “GTGAAATTGTAAATTCATTTGAGGTAAATGTCCATGCACACGGAGTCACCTAGTGCAG”, with 11100 fluorescence intensity (a.u.); and “ATAAAATAAAATAATTTATTTGTAAAACTTTTATATATGTCGGAGTCACCTAGTGCAG”, with 8100 fluorescence intensity (a.u.); and “ATTAATCACACACTAATGGATTGCTCCGTTTTCCGTGCAGCGGAGTCACCTAGTGCAG”, with 21800 fluorescence intensity (a.u.).
As for “ATGATTTGTGATATTATTTGAGGTTACAAGCGGATGAATTCGGAGTCACCTAGTGCAG”, the binding signal is 15400 fluorescence intensity (a.u.).
As for “TTGTGGTCAATTTCAATATAATTGAGTTATATATTCGATGCGGAGTCACCTAGTGCAG”, the binding signal was 15900 fluorescence intensity (a.u.).
As for “GGTGGTGTCTATTTACTAATCGTCCCCTCTCCTTCACTCTCGGAGTCACCTAGTGCAG”, the binding signal was 3190 fluorescence intensity (a.u.).
Turning to “AAAACAAATTACATAATTCGTCAGTAAACCGCGAGATGAACGGAGTCACCTAGTGCAG”, the binding signal was 8940 fluorescence intensity (a.u.).
Turning to “ACTGATTGAAAGGCCCTTCAAGTAGCACTTTCAAATTCAGCGGAGTCACCTAGTGCAG”, the binding signal is 43600 fluorescence intensity (a.u.).
Regarding “CGCTGATTGGGTTGGGTCGGGTTAGCTTTGGTTTCAATGCCGGAGTCACCTAGTGCAG”, the binding signal was 50800 fluorescence intensity (a.u.).
With “TTCATTAATTTGTAAAATGGCTGAAGGTCCCGTCCACTGCCGGAGTCACCTAGTGCAG” the figure was 36600 fluorescence intensity (a.u.); with “GATCGGTTAGTCTCGTTAATTTCGTCATCAGCATTATACTCGGAGTCACCTAGTGCAG”, 4500 fluorescence intensity (a.u.).
For “AAAGAAGGATAGCCGATGATTGACTGGATGGGTTCACAATCGGAGTCACCTAGTGCAG”, the binding signal was 28800 fluorescence intensity (a.u.).
As to “AGGGTTAAATTGTCAAAATTTGTGCGACACAAACACACTCCGGAGTCACCTAGTGCAG”, the binding signal was 10900 fluorescence intensity (a.u.).
With “CGTATGATTTCCAAATACAAACAATGTGAGACGCACTTGACGGAGTCACCTAGTGCAG”, the binding signal is 3540 fluorescence intensity (a.u.).
With “GTTGATTTATTTTAGGGGTATAAAAGAAGGGCTATGGTGTCGGAGTCACCTAGTGCAG” the figure was 39900 fluorescence intensity (a.u.); with “TTGATGCAGTGATGATTGCATAGTTTCAAGGGACAAGGCCCGGAGTCACCTAGTGCAG”, 8660 fluorescence intensity (a.u.); with “ACATCATTGACATAATATGATTTAACAACAAACAATTTAGCGGAGTCACCTAGTGCAG”, 34800 fluorescence intensity (a.u.).
With “TTCGGAATTTTGGGAATGAGATTAGATTTGGCTCCCATCGCGGAGTCACCTAGTGCAG” the figure was 3190 fluorescence intensity (a.u.).
For “CTTAATTAATAGTAGAAGATATCAACTGATTCGCTGGAAGCGGAGTCACCTAGTGCAG”, the binding signal is 21900 fluorescence intensity (a.u.).
For “CCATGAATAACAAAATGATTAGAAGTGGAAATCCTTCATGCGGAGTCACCTAGTGCAG”, the binding signal was 7440 fluorescence intensity (a.u.).
With “ATAACTATTAATGTGATATGGAAGAAATTAATGGTGTCCACGGAGTCACCTAGTGCAG” the figure was 5200 fluorescence intensity (a.u.); with “ATTATTAACATGTGACAGCGACTCATTTTATGATATATTGCGGAGTCACCTAGTGCAG”, 4890 fluorescence intensity (a.u.); with “ACAATTGATACCCCTGACACTGATTGAAGCATTGTGTGGCCGGAGTCACCTAGTGCAG”, 33200 fluorescence intensity (a.u.).
For the sequence “CCCAATTAACGTCCAGATCAATCGAATCATCCCTCCCCTACGGAGTCACCTAGTGCAG”, the binding signal is 11400 fluorescence intensity (a.u.).
Consider “TACAACAAATCAATAATACTCAATTTCCATGTAGTTTGATCGGAGTCACCTAGTGCAG”, for which the binding signal is 7890 fluorescence intensity (a.u.).

These data come from paper PMC7819943, “Rice protein-binding microarrays: a tool to detect cis-acting elements near promoter regions in rice”.
